Growth yield data for 44 compounds are collected here from the supplement of paper PMC8007513.

Counter-ions that a name gives are not always drawn. ± gives the standard error. The whole screen tested about 1,300 compounds, of which about 75 (6%) showed an effect of 50% or more. Some of the results follow.

This assay has as its system Trichoderma virens ATCC 9645. Nature of the assay: growth yield (OD600) relative to untreated control; higher = less growth inhibition. As to conditions: compound concentration: 100 uM. The method, boiled down:
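Plates were read for OD600 at 40 h and 72 h after Trichoderma virens ATCC 9645 spores (15,000 spores ml^−1 in potato dextrose broth) were grown at 30 °C with library compounds at 100 μM final, with or without a biocide at 200 ng ml^−1. Growth is stated relative to the control with neither agent, as the mean of duplicate screens.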

Regarding `C[C@H]1C[C@@H]2[C@H]([C@@H](O)C[C@@]3(C)[C@H]2CC[C@]3(O)C(=O)CO)[C@@]2(C)C=CC(=O)C=C12` [Methylprednisolone, 6-alpha], the growth yield is, setting by setting: (40 h) 101.3 ± 0.64%; (72 h) 103.3 ± 0.52%.
The matching figures for `NC(=O)C(c1ccccc1)(c1ccccc1)[C@@H]1CCN(CCc2ccc3c(c2)CCO3)C1` [Darifenacin hydrobromide]: 111 ± 6.3% and 105 ± 6.7%.
The like results for `CCCNCC(O)COc1ccccc1C(=O)CCc1ccccc1` (stereo not drawn) [Propafenone hydrochloride] were, in that order, 103 ± 4.6% and 106 ± 3.5%.
The matching figures for `COc1ccccc1OCC(O)CN1CCN(CC(=O)Nc2c(C)cccc2C)CC1` (stereo not drawn) [Ranolazine]: 101.5 ± 0.79% and 99.4 ± 1.3%.
Turning to `COc1cc([C@@H]2c3cc4c(cc3[C@@H](O[C@@H]3O[C@@H]5CO[C@@H](C)O[C@H]5[C@H](O)[C@H]3O)[C@H]3COC(=O)[C@H]23)OCO4)cc(OC)c1O` [Etoposide], the growth yield amounted to 96.1 ± 3% (40 h) and 97 ± 2.8% (72 h).
For `O=S(=O)(O)c1cc(O)ccc1O` [Ethamsylate], the growth yield runs as follows: (40 h) 99.9 ± 4.6%; (72 h) 98.8 ± 3.6%.
As for `c1ccc([C@H]2CN3CCSC3=N2)cc1` [Levamisole hydrochloride], the growth yield came out at 102.5 ± 0.79% (40 h) and 102 ± 3.2% (72 h).
For `CCC(=O)O[C@]1(C(=O)CCl)[C@@H](C)C[C@H]2[C@@H]3CCC4=CC(=O)C=C[C@]4(C)[C@@]3(F)[C@@H](O)C[C@@]21C` [Clobetasol propionate], the growth yield was 105 ± 4% (40 h) and 102 ± 2.9% (72 h).
For the compound `O=C1OCCN1/N=C/c1ccc([N+](=O)[O-])o1` [Furazolidone], the growth yield is 84.3 ± 7.2% (40 h) and 87.7 ± 5.9% (72 h).
For `COc1c2occc2c(OC)c2c(=O)cc(C)oc12` [Khellin], the growth yield (40 h) was found to be 97.7 ± 1.8% and the growth yield (72 h) stood at 95.1 ± 5.1%.
The matching figures for `Nc1cc(C(Cl)=C(Cl)Cl)c(S(N)(=O)=O)cc1S(N)(=O)=O` [Clorsulon]: 104 ± 1.3% and 104 ± 1.7%.
The like results for `CC[C@H](C)C(=O)O[C@H]1CCC=C2C=C[C@H](C)[C@H](CC[C@@H]3C[C@@H](O)CC(=O)O3)[C@H]21` [Mevastatin] were, in that order, 103 ± 7.6% and 96.2 ± 6.6%.
Consider `C[C@H](CCC(=O)O)[C@H]1CC[C@H]2[C@@H]3[C@H](O)C[C@@H]4C[C@H](O)CC[C@]4(C)[C@H]3CC[C@]12C` [Chenodiol], for which the growth yield reads like this: (40 h) 91 ± 4.6%; (72 h) 94.7 ± 3.5%.
The matching figures for `CN1CCN(c2c(F)cc3c(=O)c(C(=O)O)cn(CCF)c3c2F)CC1` [Fleroxacin]: 94.5 ± 4% and 92.6 ± 2%.
The like results for `CC(=O)OCC(CCn1cnc2cnc(N)nc21)COC(C)=O` [Famciclovir] were, in that order, 102 ± 3.3% and 99.8 ± 2.5%.
The matching figures for `NNc1nncc2ccccc12` [Hydralazine hydrochloride]: 100.7 ± 0.32% and 98.4 ± 1.7%.
Take `CN1CCN(CCCN2c3ccccc3Sc3ccc(Cl)cc32)CC1` [Prochlorperazine dimaleate]: the growth yield (40 h) was 31 ± 8.7% and the growth yield (72 h) turned out to be 108 ± 2.4%.
The matching figures for `Cc1nc(=O)c2cc(CN(C)c3ccc(C(=O)N[C@@H](CCC(=O)O)C(=O)O)s3)ccc2[nH]1` [Raltitrexed]: 99 ± 1.1% and 94.5 ± 1.4%.
The like results for `O=c1oc2ccccc2c(O)c1Cc1c(O)c2ccccc2oc1=O` [Dicumarol] were, in that order, 94 ± 0.95% and 92.4 ± 0.94%.
With `CCN(CC)CCc1nc(-c2ccccc2)no1` [Oxalamine citrate salt], the growth yield reads like this: (40 h) 93.4 ± 0.32%; (72 h) 91.243 ± 1e-14%.
Compound `CNCC(O)c1ccc(OC(=O)C(C)(C)C)c(OC(=O)C(C)(C)C)c1` (stereo not drawn) [Dipivefrin hydrochloride] returned a growth yield (40 h) of 99.28 ± 0.79% and a growth yield (72 h) of 100.2 ± 0.94%.
The matching figures for `Cc1c(N(C)CS(=O)(=O)O)c(=O)n(-c2ccccc2)n1C` [Dipyrone]: 91.7 ± 4.6% and 85.68 ± 0.73%.
In the case of `O=c1[nH]c(=O)n(C2CCCO2)cc1F` (stereo not drawn) [Tegafur], the growth yield (40 h) was 106 ± 8.3% and the growth yield (72 h) was 94.8 ± 7.5%.
Regarding `CC(NCCC(c1ccccc1)c1ccccc1)c1ccccc1` (stereo not drawn) [Fendiline hydrochloride], the growth yield reads like this: (40 h) 106 ± 2.5%; (72 h) 115 ± 4.2%.
For `CC(=O)Oc1ccccc1C(=O)Nc1ncc([N+](=O)[O-])s1` [Nitazoxanide], the growth yield was determined as 89.3 ± 4.1% (40 h) and 97.7 ± 2.1% (72 h).
On to `CCN(CC)CCOC(=O)C1(C2CCCCC2)CCCCC1` [Dicyclomine hydrochloride], for which the growth yield came out at 97.5 ± 3.8% (40 h) and 101 ± 6.2% (72 h).
In the case of `CC(N/C(=N\C#N)Nc1ccncc1)C(C)(C)C` (stereo not drawn) [Pinacidil], the growth yield reads like this: (40 h) 100 ± 2.2%; (72 h) 103 ± 0.21%.
Take `CCCCC(O)c1ccccc1` (stereo not drawn) [Fenipentol]: the growth yield runs as follows: (40 h) 96.89 ± 0.32%; (72 h) 101 ± 0.32%.
As for `CN(C)CCCN1c2ccccc2Sc2ccc(C(F)(F)F)cc21` [Triflupromazine hydrochloride], the growth yield by setting is: (40 h) 74.66 ± 0.32%; (72 h) 92.1 ± 2.1%.
As to `COc1cc(C(=O)OCCCN2CCCN(CCCOC(=O)c3cc(OC)c(OC)c(OC)c3)CC2)cc(OC)c1OC` [Dilazep dihydrochloride], the growth yield reads like this: (40 h) 104 ± 4.8%; (72 h) 99.8 ± 2.9%.
For `O=C1c2c(O)cccc2Cc2cccc(O)c21` [Anthralin], the growth yield (40 h) was 96.7 ± 3.6% and the growth yield (72 h) came out at 89.5 ± 2.8%.
The like results for `C[C@@H]1C[C@H]2[C@@H]3C[C@H](F)C4=CC(=O)C=C[C@]4(C)[C@@]3(F)[C@@H](O)C[C@]2(C)[C@@]1(O)C(=O)CO` [Flumethasone] were, in that order, 97.2 ± 2.2% and 92.29 ± 0.84%.
The matching figures for `O=C(O)Cc1ccc(-c2ccccc2)cc1` [Felbinac]: 79.7 ± 19% and 98.4 ± 3.4%.
The matching figures for `O=C(O)c1cn(-c2ccc(F)cc2)c2cc(N3CCNCC3)c(F)cc2c1=O` [Sarafloxacin]: 101 ± 4.1% and 97 ± 2.4%.
Compound `C[N+]1(C)CCC(OC(=O)C(O)(c2ccccc2)C2CCCC2)C1` (stereo not drawn) [Glycopyrrolate] registered a growth yield (40 h) of 96.26 ± 0.95% and a growth yield (72 h) of 90.72 ± 0.73%.
The matching figures for `Clc1ccc(CCC(Cn2ccnc2)Sc2c(Cl)cccc2Cl)cc1` (stereo not drawn) [Butoconazole nitrate]: 3.49% and 2.31%.
The like results for `N#Cc1ccc(C(c2ccc(C#N)cc2)n2cncn2)cc1` [Letrozole] were, in that order, 103 ± 1.1% and 101.5 ± 0.42%.
For `N=C(NCCCCCCNC(=N)NC(=N)Nc1ccc(Cl)cc1)NC(=N)Nc1ccc(Cl)cc1` [Chlorhexidine], the growth yield is, setting by setting: (40 h) 2.7 ± 1.4%; (72 h) 2.31 ± 0.84%.
For `NCc1ccccc1CC(=O)N[C@@H]1C(=O)N2C(C(=O)O)=C(CSc3nnnn3CC(=O)O)CS[C@H]12` [Ceforanide], the growth yield turned out to be 92.4% (40 h) and 96.1% (72 h).
On to `CN1CCN(C2=Nc3ccccc3Oc3ccc(Cl)cc32)CC1` [Loxapine succinate], for which the growth yield came out at 97.2 ± 1.6% (40 h) and 102 ± 2.9% (72 h).
The like results for `CC(=O)S[C@@H]1CC2=CC(=O)CC[C@]2(C)[C@H]2CC[C@@]3(C)[C@@H](CC[C@@]34CCC(=O)O4)[C@H]12` [Spironolactone] were, in that order, 96.26 ± 0.32% and 99.11 ± 0.94%.
Regarding `CCCc1cc(C(N)=S)ccn1` [Prothionamide], the growth yield reads like this: (40 h) 104 ± 4.6%; (72 h) 104 ± 3.9%.
`CC(Cc1cccc(C(F)(F)F)c1)NCCOC(=O)c1ccccc1` (stereo not drawn) [Benfluorex] came in with a growth yield (40 h) of 83.5 ± 3.5% and a growth yield (72 h) of 95.9 ± 1.9%.
The matching figures for `NNCCc1ccccc1` [Phenelzine sulfate]: 102 ± 3.5% and 95.6%.
